# According to PMC4336329 (PLoS ONE, 2015):
# In all, about 310,000 compounds went through this assay and about 2,200 (0.71%) showed an effect of 50% or more. Effects have a minus sign here. This is one part of the list.
# Target: human ether-à-go-go-related gene (hERG) potassium channel (human, UniProt Q12809)
# Test: primary screen, population patch clamp on CHO cells stably expressing hERG
# Chain of human ether-à-go-go-related gene (hERG) potassium channel (Q12809 whole entry, looked up): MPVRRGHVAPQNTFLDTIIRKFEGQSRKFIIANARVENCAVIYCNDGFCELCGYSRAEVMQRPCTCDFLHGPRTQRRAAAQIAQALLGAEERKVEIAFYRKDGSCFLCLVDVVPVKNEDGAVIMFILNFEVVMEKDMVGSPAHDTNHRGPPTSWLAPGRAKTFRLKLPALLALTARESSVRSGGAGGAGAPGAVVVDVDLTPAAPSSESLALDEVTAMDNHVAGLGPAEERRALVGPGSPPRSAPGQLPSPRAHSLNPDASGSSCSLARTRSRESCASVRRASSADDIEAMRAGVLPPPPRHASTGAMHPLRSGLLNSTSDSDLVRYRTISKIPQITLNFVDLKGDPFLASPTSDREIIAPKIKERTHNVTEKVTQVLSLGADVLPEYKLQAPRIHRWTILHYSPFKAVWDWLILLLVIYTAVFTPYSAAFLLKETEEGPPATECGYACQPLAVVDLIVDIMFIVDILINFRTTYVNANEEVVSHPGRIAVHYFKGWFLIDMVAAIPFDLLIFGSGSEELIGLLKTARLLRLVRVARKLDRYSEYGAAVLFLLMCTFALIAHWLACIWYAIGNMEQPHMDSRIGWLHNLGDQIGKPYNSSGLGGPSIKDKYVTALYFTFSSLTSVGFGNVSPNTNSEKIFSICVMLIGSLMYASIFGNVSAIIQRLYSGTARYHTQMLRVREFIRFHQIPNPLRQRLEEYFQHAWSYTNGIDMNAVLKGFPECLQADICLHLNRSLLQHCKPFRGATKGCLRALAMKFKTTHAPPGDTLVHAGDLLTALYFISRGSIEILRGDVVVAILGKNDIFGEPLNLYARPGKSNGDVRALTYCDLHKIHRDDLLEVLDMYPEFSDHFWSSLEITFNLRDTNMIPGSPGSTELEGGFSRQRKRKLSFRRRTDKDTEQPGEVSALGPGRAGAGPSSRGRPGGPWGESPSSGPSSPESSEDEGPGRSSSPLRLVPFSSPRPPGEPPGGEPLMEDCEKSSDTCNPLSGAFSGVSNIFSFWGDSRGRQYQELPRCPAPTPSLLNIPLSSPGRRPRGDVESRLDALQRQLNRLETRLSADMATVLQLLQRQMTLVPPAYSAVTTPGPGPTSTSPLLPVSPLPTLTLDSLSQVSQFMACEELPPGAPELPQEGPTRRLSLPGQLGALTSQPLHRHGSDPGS
row,SMILES,"hERG current change (%, negative = inhibition) at 1uM"
1,CCN1CCN(CC(=O)c2c[nH]c3ccccc23)CC1,3.32%
2,COc1ccc(OC)c(/C=N/NC(=O)CN2CCSCC2)c1,-2.03%
3,NCCCn1cnc2ccccc21,14.8%
4,Cc1cc(OCC(=O)OCC(=O)N2c3ccccc3NC(=O)C2(C)C)ccc1Cl,14.7%
5,CC1CN(c2oc(-c3ccco3)nc2C#N)CC(C)O1 (stereo not shown),6.96%
6,c1ccc(Cn2nnnc2C(c2ccccc2)N2CCN(c3nc4ccccc4s3)CC2)cc1 (stereo not shown),11.1%
7,CC1(C)CC2(CCO1)C(Nc1ccccc1)=NC(=S)N2CC(N)=O (stereo not shown),11.8%
8,CCn1c(N)c(C(=O)NCc2cccnc2)sc1=S,3.53%
9,CCCCCOCC1CC(C/C(C)=N/NC(N)=O)(C(=O)OCC)C(=O)O1 (stereo not shown),5.89%
10,CC(C)C(=O)NC(NCC1CCCO1)C(Cl)(Cl)Cl (stereo not shown),15.7%
11,COc1cccc(N2CCN(c3ccc4nnc(CCC(=O)Nc5cccc(C(C)=O)c5)n4n3)CC2)c1,0.828%
12,CCOc1ccccc1NS(=O)(=O)c1ccc2c(c1)N(C)CCO2,10.1%
13,CO/N=C(\C(=O)N[C@@H]1C(=O)N2C(C(=O)[O-])=C(COC(N)=O)CS[C@H]12)c1ccco1.[Na+],14%
14,COc1ccccc1C(C)N(C)Cc1nc(COc2ccccc2)no1 (stereo not shown),16.2%
15,CC(=O)Nc1ccc2c(c1)C(=O)N(c1cccc(C)c1)C2=O,8.62%
16,CC(C)CC(=O)N1CCN(S(=O)(=O)c2ccc3ccccc3c2)CC1,4.05%
17,CC1=C(C(=O)N2CCCCCC2)C2(CCC(C)CC2)OC1=O (stereo not shown),8.36%
18,CC(C)COc1ccc(C(=O)N/N=C/c2ccoc2)cc1,4.93%
19,CCc1ccccc1NC(=O)CC(NCc1ccccc1)C(=O)O (stereo not shown),14.9%
20,Cc1cc(C)c(NC(=O)CCCN2CCN(C)CC2)c(C)c1,-4.87%
21,Cc1cc(C)cc(NC(=O)N2CCNC(=O)C2CC(=O)Nc2cc(Cl)ccc2Cl)c1 (stereo not shown),0.0632%
22,CCCCS(=O)(=O)NC1=NCN(CC)CN1,12.2%
23,COc1ccccc1NC(=O)CN1C(=O)COc2ccc(S(=O)(=O)N3CCOCC3)cc21,8.74%

row,SMILES,"hERG current change (%, negative = inhibition) at 1uM"
1,COc1cccc(/C=N/n2c(-c3cc(C)[nH]n3)n[nH]c2=S)c1OC,13.9%
2,COc1ccc(-n2c(C)nc3c(cnn3-c3ccc(C)c(C)c3)c2=O)cc1,-3.3%
3,Cc1ccc(SCc2cn3c(C)cc(C)nc3n2)cc1,-8.39%
4,O=C(O/N=C/c1cccc([N+](=O)[O-])c1)C1CC1,13.8%
5,O=C(CCc1nnc2n(Cc3ccc(Cl)cc3)c(=O)c3ccccc3n12)NCCN1CCCC1,-28.6%
6,COc1ccc(N2C(=O)CC(N3CCN(C(=O)c4ccco4)CC3)C2=O)cc1 (stereo not shown),8.21%
7,Cc1cc(NC(=O)CSc2nnc(-c3ccccc3)n2C)no1,14.7%
8,CCc1ccc(NC(=O)C2CC(=O)N=C(N)S2)cc1 (stereo not shown),10.7%
9,Nc1ccccc1C(=O)NC12CC3CC(CC(C3)C1)C2,13.5%
10,COc1ccc(C(=O)C(CN2CCOCC2)c2ccccc2)cc1.Cl (stereo not shown),2.83%
11,CSCCC(C(=O)NCc1cccs1)N1C(=O)c2ccccc2C1=O (stereo not shown),6.56%
12,CCNC(=O)CC1SC(=Nc2ccc(C)cc2)NC1=O (stereo not shown),14.2%
13,Cn1c([N+](=O)[O-])cnc1N1CCN(c2nncs2)C1=O,3.39%
14,CCOc1ccc(CCNC(=O)COC(=O)c2sccc2C)cc1OCC,10.7%
15,CCC(C(=O)NCc1ccco1)n1nc(C)c2c(C)n(-c3ccc(C)cc3)nc2c1=O (stereo not shown),-9.7%
16,O=C(CN1CCN(Cc2cccc(Cl)c2)C1=O)NCC1CCCO1 (stereo not shown),8.62%
17,O=C(Nc1ccc(F)cc1)c1ccc(S(=O)(=O)NCC2CCCO2)cc1 (stereo not shown),12.5%
18,COc1ccc(OC)c(N/C=C/C(=O)c2ccc(OC)c(OC)c2)c1,13.1%
19,CC(C)Cc1nnc(NC(=O)CS(=O)(=O)Cc2ccccc2)s1,15.1%
20,CN(C)S(=O)(=O)c1cccc(NC(=O)CCCSc2ccccc2)c1,7.13%
21,COC(=O)c1ccc(N2C(=O)Nc3ccccc3N2O)cc1,12.7%
22,FC(F)(F)c1cc(-c2ccco2)nc(NCCc2ccccc2)n1,11.4%
23,O=C(c1ccco1)c1cn(CC(=O)N2CCCC2)c2ccccc12,6.91%

row,SMILES,"hERG current change (%, negative = inhibition) at 1uM"
1,Cc1cc(Cl)ccc1N1C(=O)CC(NNC(=O)c2cccnc2)C1=O (stereo not shown),2.19%
2,COCCNC(=O)Cn1cc(C(=S)N2CCOCC2)c2ccccc21,6.79%
3,Cc1ccccc1N1CC(O)(c2cccs2)[N+]2=C1CCCC2.[Br-] (stereo not shown),-2.75%
4,CCn1c(SCC(=O)Nc2ccc3c(c2)OCCO3)nnc1-c1ccco1,9.44%
5,COc1ccc(CNC(=O)COC(=O)C(CCSC)NC(=O)c2ccco2)cc1OC (stereo not shown),10.7%
6,O=C(c1cccc([N+](=O)[O-])c1)c1ccccn1,8.37%
7,Cc1c(CN2CCN(C)C(CCO)C2)[nH]c2c(Cl)cccc12 (stereo not shown),-5.03%
8,COc1ccc(NC(=O)c2cc3ccccn3n2)cc1,-3.79%
9,C/C(=N/NC(=O)CNC(=O)c1cccnc1)c1ccc(Cl)cc1,9.47%
10,CCc1nnc2n1N=C(c1ccc(-c3cc(Cl)ccc3Cl)o1)CS2,15.9%
11,COc1cc(OC)cc(C(=O)N2CCCc3ccccc32)c1,4.31%
12,CNNC(=O)C(C)NC(=O)c1ccc(Br)cc1 (stereo not shown),-9.65%
13,CC(C)CCOC(=O)C[N+](C)(C)CCOC1CC2CCC1(C)C2(C)C.[Cl-] (stereo not shown),-1.93%
14,C=CCn1c(COc2ccccc2F)nnc1SCCN1C(=O)c2ccccc2C1=O,-1.37%
15,O=C1NC(=O)/C(=C/c2cccc(O)c2)N1,12.9%
16,CC(=O)Nc1ccc(OCC(=O)NC(C)c2ccc(F)cc2)cc1 (stereo not shown),14.9%
17,COc1cc(C(=O)NCCC(=O)NC2CCCc3ccccc32)cc(OC)c1OC (stereo not shown),31.1%
18,O=C(O)C(=O)O.O=S(=O)(c1ccc(F)cc1)N1CCN(Cc2ccccn2)CC1,8.85%
19,N#CC1=C(SCC(=O)c2ccc(Br)cc2)NC2=C(C(=O)CCC2)C1c1ccco1 (stereo not shown),4.69%
20,COc1ccccc1-c1oc2ccccc2c1C#CCCO,9.84%
21,COc1ccc(-c2ccc(NC(=O)c3ccco3)cc2)nn1,15.5%
22,O=C(O)c1cccc2c1C(=O)N(c1ccccc1)C2,7.58%
23,Cc1nn(C)c(-c2n[nH]c(=S)n2-c2ccccc2)c1Cl,20.8%

row,SMILES,"hERG current change (%, negative = inhibition) at 1uM"
1,CCOc1cc(/C=C(\C#N)c2nc3ccccc3[nH]2)ccc1OC(C)C(=O)O (stereo not shown),11.3%
2,O=C(OC(C(=O)NC1CCCC1)c1ccccn1)c1cccs1 (stereo not shown),2.51%
3,COC(=O)c1c(NC(=O)CSc2nc3ccccc3c(=O)n2Cc2ccco2)sc(C)c1C,2.12%
4,CC(C)[C@H](NC(=O)c1ccco1)C(=O)OCC(=O)Nc1cccc(F)c1,7.89%
5,CCCn1c(=O)c(C(=O)Nc2ccccc2C(=O)OC)c(O)c2ccccc21,1.64%
6,O=C(NS(=O)(=O)Oc1cccc(Cl)c1Cl)OC[C@@H]1CCCN2CCCCC12 (stereo partly shown),9.33%
7,O=C(Nc1ccncc1)c1ccc(Cl)c(S(=O)(=O)N2CCCC2)c1,7.67%
8,COc1ccccc1NC(=O)NC1(C(=O)N2CCCCC2)CCCCC1,16.3%
9,O=C(CN1CCC(O)(c2ccc(F)cc2)CC1)NCc1ccc(F)cc1,-0.396%
10,COc1ccccc1OCC(=O)NCC1CCCCC1,2.22%
11,Cc1ccc(-n2c(SCC(=O)NCc3ccco3)nc3c([nH]c4ccccc43)c2=O)cc1,7.44%
12,CCc1onc(C)c1C(=O)Nc1cc(C)ccc1OC,8.49%
13,COc1cc(NC(=O)c2cccs2)c(OC)cc1NC(=O)Nc1ccc(F)cc1,16%
14,c1ccc(-c2nc3ccccc3c3nc4ccccc4n23)cc1,8.33%
15,O=C(CCC(=O)c1cccs1)NCC(=O)Nc1ccc(F)c(F)c1F,7.77%
16,CCCCc1cc(=O)oc2cc(OCC(=O)NC3CCN(Cc4ccccc4)CC3)ccc12,-41.7%
17,Cc1c(C2C(C#N)=C(N)OC3=C2C(=O)CCC3)cnn1C (stereo not shown),11.3%
18,COc1ccc(N2CC(C(=O)N[C@@H](C)C(=O)NC3CCCCC3)CC2=O)cc1 (stereo partly shown),18.3%
19,COc1ccc(NC(=O)C2CCCN(S(C)(=O)=O)C2)cc1 (stereo not shown),19.7%
20,COc1cc(C(=O)NC(=S)NC(C)C)cc(OC)c1OC,-1.13%
21,COc1cc(C(=O)N2CCC(N3CCCCCC3)CC2)cc(OC)c1OC.O=C(O)C(=O)O,8.18%
22,O=C(CCN1C(=O)c2ccc([N+](=O)[O-])cc2C1=O)Nc1ccc(O)cc1C(=O)O,30%
